Assay results: PubChem BioAssay AID686978 (National Center for Advancing Translational Sciences (NCATS), 2013)
In all, about 420,000 compounds went through this assay and about 64,000 (15%) were called active. The shares of active, inactive and inconclusive entries below differ from those in the screen. Calls follow the shape of the dose curve; as a rule, active = well fitted inhibition curve with a large enough effect; inconclusive = small, poorly fitted or top-dose-only effect; inactive = flat fitted curve, though single readings scatter. Potencies of inconclusive entries are left out as doubtful fits.

experiment: qHTS for Inhibitors of human tyrosyl-DNA phosphodiesterase 1 (TDP1): qHTS in cells in absence of CPT; settings: DT40 Tdp1-/- hTDP1 cells, no CPT, ATP luminescence, 48 h; activity change, negative = growth inhibition: at 46.2 µM (top of the series) unless noted; also: nearly all actives have a fitted effect of over 55% in size
Procedure, shortened: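 No-CPT arm: Tdp1-/-;hTDP1 DT40 cells (400/well) plus compounds, incubated ≥48 hr at 37 °C. Readout CellTiter-Glo luminescence.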
% is scaled to controls: 0 for no effect and ±100 for the full control effect; potency is read from the fitted curve at half-maximal effect; tags tell the direction and shape of the fitted curve.

SMILES	Potency	activity change, negative = growth inhibition
Cc1c(C(=O)NC(C)c2ccccc2)sc2ncnc(N(C)C3CCCCC3)c12 (stereo not drawn)	inconclusive [inhibitor, single point]	
Cc1ccc(-c2c(CN3CCN(c4cc(C)ccc4C)CC3)csc2C)cc1	active: 16.4 µM	
O=c1c2cn(Cc3ccc(F)cc3)c3ccc(F)cc3c-2nn1Cc1ccc(F)cc1		inactive: -17.7%
COc1cccc(C(=O)NCC[N+](C)(C)C)c1		inactive: -10.2%
CC(Sc1ccccc1)C(=O)N/N=C/c1ccccc1 (stereo not drawn)	inconclusive [inhibitor, single point]	
O=C(Nc1ccc(N2CCOCC2)cc1)c1csc([C@@H]2O[C@H](CO)[C@H](O)[C@H](O)[C@H]2O)n1		inactive: 16.3%
COc1cccc(NC(=O)C2(C)CCN2Cc2ccc(SC)cc2)c1 (stereo not drawn)	inconclusive [inhibitor, partial curve]	
COc1ccc(C(C)=O)cc1COc1cccnc1[N+](=O)[O-]	active: 16.4 µM	
O=C(c1ccccc1)N(C1=NCCCCS1)c1ccccc1		inactive: -2.75%
C/C(=N\NC(=O)c1ccccc1F)c1ccc(C#N)cc1		inactive: -11.3%
CC1CCCCC1NC(=S)NC(=O)c1ccccc1Cl (stereo not drawn)	inconclusive [inhibitor, single point]	
c1ccc2c(c1)ncn2-c1cncnc1		inactive: -3.87%
CCOc1ccccc1-c1nc(CN2CCN(C(=O)c3ccco3)CC2)c(C)o1		inactive: -19.9%
COc1cc(C(CCN2CCN(c3ccccc3)CC2)c2c(OC)cc(OC)c3ccc(=O)oc23)cc(OC)c1OC (stereo not drawn)	inconclusive [inhibitor, single point]	
CC(C)(C)c1ccc(/C=C/C(=O)Nc2ccncc2)cc1	active: 7.31 µM	
CCN(CC)C(=O)CSc1nnc2ccc3ccccc3n12		inactive: -2.33%
Cc1csc(NC(=O)Cc2nn(C)c(=O)c3ccccc23)n1	active: 8.2 µM	
CCCn1cc(S(=O)(=O)c2cccc(Cl)c2)c(=O)c2cc(F)c(N3CCOCC3)cc21	inconclusive [inhibitor, single point]	
O=S(=O)(Nc1ccc(-c2ccc(N3CCCCC3)nn2)cc1)c1ccc(OC(F)(F)F)cc1	active: 16.4 µM	
CN1/C(=C/C(=O)CSc2ccccc2C(=O)O)C(C)(C)c2ccccc21	active: 9.2 µM	
COc1cc(C(=O)NCc2cccs2)ccc1OCc1c(C)noc1C	inconclusive [inhibitor, single point]	
CCN(CC)CCNC(=O)CS(=O)Cc1nc(-c2ccc(Cl)cc2)oc1C (stereo not drawn)	inconclusive [inhibitor, single point]	
CCOC(=O)c1ccc(N2C(=O)CC(N(Cc3ccc4c(c3)OCO4)C(=O)Nc3ccccc3)C2=O)cc1 (stereo not drawn)	inconclusive [inhibitor, single point]	
O=C(COc1nsnc1N1CCOCC1)Nc1ccc(Cl)cc1	active: 14.6 µM	
CCOc1ccccc1/C=N/n1c(C2CCCCC2)n[nH]c1=S		inactive: -1.04%

SMILES	Potency	activity change, negative = growth inhibition
CCn1ccc(C(=O)NC2=NCCS2)n1	inconclusive [inhibitor, single point]	
Cc1nn(-c2ccc(N3CCCCC3)nn2)c(C)c1CCC(=O)NCc1ccc(F)cc1	inconclusive [inhibitor, single point]	
CCC(C)NCCOCCOc1ccc(Cl)cc1Br (stereo not drawn)	inconclusive [inhibitor, partial curve, poor fit]	
O=c1c(-c2ccco2)nc2ccccc2n1C(c1ccccn1)c1nc2ccccc2[nH]1 (stereo not drawn)	inconclusive [inhibitor, single point]	
CC(C)N1CCN(Cc2ccc3c(c2)Cc2ccccc2-3)CC1CCO (stereo not drawn)	active: 23.1 µM	
COc1ccc2c(c1)n([O-])c1c([n+]2=O)CCC1		inactive: 17.4%
O=C(/C=C/c1cccc(Cl)c1)N1CCC(Cc2ccccc2)CC1	inconclusive [inhibitor, single point]	
CCOc1ccccc1-c1nc(-c2ccc(C)nc2OC)no1	inconclusive [inhibitor, single point]	
Fc1ccc(-n2c(Cc3ccccc3)nnc2SCc2nc(-c3cccs3)no2)cc1	inconclusive [inhibitor, single point]	
CC(=O)C1=C(C)N(CC2CC2)C(=O)N[C@H]1c1ccc(Br)cc1	inconclusive [inhibitor, single point]	
CCN(CC)S(=O)(=O)c1cccc(NC(=O)COc2ncnc3sccc23)c1	active: 16.4 µM	
CCC(C)Sc1ccc([C@@H]2[C@@H]3C(=O)N(CC)C(=O)[C@@H]3[C@]3(C(=O)OC)CCCCN23)cc1OC (stereo partly drawn)	inconclusive [inhibitor, single point]	
O=C(NCc1ccc(F)cc1)c1ccc[nH]1		inactive: -15.1%
CC1CCC(C(C)C)C(NC(=O)c2ccncc2)C1 (stereo not drawn)		inactive: -9.55%
Cc1cc([N+](=O)[O-])cc2c1NC(=O)C2(O)N1CCOCC1 (stereo not drawn)		inactive: -19%
O=C(NNC(=O)c1ccc2c(=O)n3c(nc2c1)CCC3)c1ccc(Cl)cc1		inactive: -24.1%
O=[N+]([O-])c1ccc(O)c(/C=N/n2c(-c3ccccc3)n[nH]c2=S)c1		inactive: -6.37%
Cc1[nH]n(-c2ccc(Cl)c(Cl)c2)c(=O)c1CCO	inconclusive [inhibitor, partial curve]	
CC1(C(=O)NCC2CCCCC2)CCN1C(=O)Cc1ccc(-c2ccccc2)cc1 (stereo not drawn)	active: 23.1 µM	
CSc1nc(C)cc(Oc2ccc(=O)[nH]n2)n1		inactive: -4.6%
COC(=O)c1c(NC(=O)c2cc(=O)c3c(C)cc(C)cc3o2)sc2c1CCCC2		inactive: 2.53%
CCCCCCCCN1C(=O)[C@H](CC(=O)N2CCSCC2)C[C@@]2(C(=O)OC)CCCCC=C12	inconclusive [inhibitor, single point]	
CCN1C(=O)/C(=C\C=C\c2ccccc2[N+](=O)[O-])SC1=S	active: 11.6 µM	
Cn1ccc2c(-c3ccc(F)cc3)cc3c(c21)C1CCC3C1 (stereo not drawn)	inconclusive [inhibitor, partial curve, poor fit]	
NS(=O)(=O)c1ccc(CNC(=O)c2cc(-c3cccs3)nc3ccccc23)cc1	inconclusive [inhibitor, partial curve, poor fit]	

SMILES	Potency	activity change, negative = growth inhibition
O=C(Nc1ccc(OCC(=O)N2CCC(Cc3ccccc3)CC2)cc1)c1ccco1	active: 29.1 µM	
C[C@H](CO)N1C[C@H](C)[C@H](CN(C)Cc2ccc(C(=O)O)cc2)OCc2ccccc2-c2c(n(C)c3ccccc23)C1=O		inconclusive: -20.9% [inhibitor]
CCOC(=O)C1CCN(S(=O)(=O)c2cc(-c3onc(C)c3C)ccc2C)CC1	inconclusive [inhibitor, single point]	
Cc1cccc(NC(=O)CN(c2ccc(C(C)C)cc2)S(=O)(=O)c2c(C)nn(C)c2C)c1C	inconclusive [inhibitor, single point]	
CCC(C(=O)NC1CCCC1)n1c(C2CC2)nc2ccccc21 (stereo not drawn)		inactive: -29.9%
Cc1ccc(-n2ncc3c(N4CCN(c5ccccc5)CC4)ncnc32)cc1C	active: 13 µM	
COc1cc(C(=O)NCC(=O)N/N=C/c2ccc(-c3ccc([N+](=O)[O-])cc3)o2)cc(OC)c1OC	active: 20.6 µM	
CCOc1ccc2c(c1)c1nnc(SCC3CCCO3)nc1n2C (stereo not drawn)	inconclusive [inhibitor, single point]	
CC(O)(c1ccc(F)c(F)c1)c1nc(/C=C/c2ccccc2)cs1 (stereo not drawn)	inconclusive [inhibitor, single point]	
Cc1nnc(NC(=O)C(c2ccccc2)c2ccccc2)s1	inconclusive [inhibitor, single point]	
O=C(NC1CCCCC1)C1CCCN1S(=O)(=O)c1ccc(Cl)cc1 (stereo not drawn)	inconclusive [inhibitor, single point]	
O=C(NC1CCN(C(=O)N2c3ccccc3Sc3ccccc32)CC1)c1ccccc1Cl	active: 23.1 µM	
CCCCN(C(=O)CCSc1ccc(F)cc1)c1c(N)n(Cc2ccccc2)c(=O)[nH]c1=O		inactive: -3.03%
CC(=O)N1CCCc2cc(S(=O)(=O)N3CCC(C(=O)N(Cc4ccccc4)C(C)C)CC3)ccc21	inconclusive [inhibitor, single point]	
COc1ccc2cc(CN(Cc3ccco3)C(=S)NCC3CCCO3)c(=O)[nH]c2c1 (stereo not drawn)	inconclusive [inhibitor, single point]	
COc1ccc(-c2ccc(C(=O)N3CCc4c(cnc(C)c4CNS(=O)(=O)N(C)C)C3)o2)cc1	inconclusive [inhibitor, single point]	
CC1(C)Nc2cccc3c(N=Nc4ccc(N=Nc5ccccc5)c5ccccc45)ccc(c23)N1	active: 11.2 µM	
Cc1cccc(N2CCN(C(=O)c3cccc(NC4=NC5CS(=O)(=O)CC5S4)c3)CC2)c1C (stereo not drawn)	inconclusive [inhibitor, single point]	
O=C(COc1ccccc1Cl)N1CCc2ccccc21		inactive: 2.88%
COc1cccc(C(=O)NNc2c3ccccc3nc3ccccc23)c1	active: 11.6 µM	
CCOC(=O)N1CCN(C(=O)c2ccc3c(c2)N(Cc2ccccc2F)C(=O)c2ccccc2S3=O)CC1 (stereo not drawn)	inconclusive [inhibitor, single point]	
CCOc1ccc(NS(=O)(=O)c2ccc(C(=O)N(C)CCc3ccc(OC)c(OC)c3)cc2)cc1	inconclusive [inhibitor, single point]	
CC(=O)c1c(C)[nH]c(C(=O)OCC(=O)N2CCN(S(=O)(=O)c3ccc(C)cc3)CC2)c1C	inconclusive [inhibitor, partial curve]	
